According to PubChem BioAssay AID1508642 (National Center for Advancing Translational Sciences (NCATS), 2021):
The whole screen tested about 43,000 compounds, of which about 200 (0.47%) were called active. Another 12% or so got no clear call; they are omitted. The call rests on the fitted dose curve; in most records, active means well fitted cell-killing curve with a large enough effect; inconclusive means small, poorly fitted or top-dose-only effect, or effect the other way; inactive means flat fitted curve, though single readings scatter. The list shows a part of the results.

Experiment: Cell viability qHTS assay in S16 Pmp22-F2sN cells; further: nearly all actives have a fitted effect of over 65% in size
Settings: S16 Pmp22-F2sN Schwann cells viability, CellTiter-Glo, 24 h; series mostly up to 57.5 µM; activity change, negative = cytotoxicity: at the top concentration
In short: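 Viability was measured by CellTiter-Glo luminescence (15 min, room temperature). This followed 24 h at 37 °C of compound exposure (23 nL pin transfer) in S16 Pmp22-F2sN Schwann cells, 500-1,000 per well.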
On the % scale 0 is the no-effect control and ±100 the full control effect.

SMILES | activity change, negative = cytotoxicity
Cc1ccc(C)c(NC(=O)CSc2ccc3nc(-c4ccccc4)cn3n2)c1 | inactive: 1.58%
COc1ccc(Nc2oc(/C=C/c3ccccc3OC)nc2C#N)cc1 | inactive: 1.37%
O=C(Nc1cccc(C(=O)OCc2cc(=O)n3nc(C4CC4)sc3n2)c1)c1cccc(Cl)c1 | inactive: 3.86%
O=C(CSc1nc2c([nH]c3ccccc32)c(=O)n1-c1ccccc1F)Nc1cccc(C(F)(F)F)c1 | inactive: -15.8%
O=C(CCCN1C(=O)c2cccnc2Oc2ccc(Cl)cc21)NCc1ccc(F)cc1 | inactive: 5.79%
CN1CCN(CCNC(=O)c2cnn(-c3ccc(F)cc3)c2C2CCN(C(=O)OC(C)(C)C)CC2)CC1 | inactive: 4.39%
Cc1ccc(N2CC(NC(=O)c3cccs3)CC2=O)cc1 (centres undefined) | inactive: 7.17%
CCOc1ccc(-n2cc(-c3ccccc3)c3c(NC4CCCC4)ncnc32)cc1 | inactive: -1.62%
O=C(CN1C(=O)C2(SCC(=O)N2c2ccc(F)cc2)c2ccccc21)NC1CCCCC1 (centres undefined) | inactive: 5.69%
Cc1ccc2c(c1)C(=O)OC(C(=O)Nc1ccccc1C(=O)O)C2 (centres undefined) | inactive: -7.94%
CC1=C(c2ccc(C)c(C)c2)S(=O)(=O)N(Cc2ccc(C(=O)Nc3cc(F)ccc3F)cc2)C1=O | inactive: -2.8%
Cc1ccc(N2C(=O)CSC23C(=O)N(CC(=O)NCc2ccccc2)c2ccccc23)cc1 (centres undefined) | inactive: -17%
COc1ccc(NC(=O)c2cc(-c3ccccc3F)no2)cc1 | inactive: -1.81%
Cc1cccc(Nc2sc(C(=O)c3ccc(Cl)cc3)c(N)c2C(N)=O)c1 | inactive: 0.867%
COc1cccc(CNC(=O)Cn2nc(C)c3sc4ccccc4c3c2=O)c1OC | inactive: 6.17%
Cc1nn2c(C)c(C(=O)N3CCN(c4ccc(Cl)cc4)CC3)cnc2c1-c1ccc(F)cc1 | inactive: 9.03%
COc1cc2c(cc1OC)n(CC(=O)c1ccc(C)cc1C)c(=O)n1nc(CCn3nc(C)cc3C)nc21 | inactive: -1.17%
Cc1ccc2nc(NC(=O)c3ccc(S(=O)(=O)N4CCC(C)CC4)cc3)sc2c1 | inactive: 1.62%
Cc1ccccc1CN1C(=O)c2ccccc2Sc2ccc(C(=O)NCCc3ccccc3)cc21 | inactive: -24.7%
Cc1cccc(C)c1OCC(=O)N(Cc1ccco1)Cc1ccco1 | inactive: -12.8%

SMILES | activity change, negative = cytotoxicity
C=Cc1ccc(Cn2c(C)c(CNCCc3ccc(OCC)cc3)c(C(=O)O)c2C)cc1 | inactive: 6.88%
CCn1cc(C(=O)N2CCN(c3cccc(Cl)c3)CC2)c(=O)c2cc(S(=O)(=O)N3CCC(C)CC3)ccc21 | inactive: 0.844%
Cc1ccc2c(=O)cc(CSc3ncn[nH]3)[nH]c2c1C | inactive: -2.57%
CCOC(=O)c1c(C)[nH]c(C)c1S(=O)(=O)N1CCC(C(=O)N2CCN(c3ccc(F)cc3)CC2)CC1 | inactive: -2.05%
COc1ccc(N2CCN(C(=O)C(C)n3nc(C)c4sc5ccccc5c4c3=O)CC2)cc1 (centres undefined) | inactive: 11.7%
CCOC(=O)c1c(NC(=O)C2c3ccccc3Oc3ccccc32)sc2c1CCC(CC)C2 (centres undefined) | inactive: -1.1%
CCOC(=O)C(CC)N1CCN(Cc2ccc(F)cc2)C(=O)C1=O (centres undefined) | inactive: 11.4%
CCn1nc(C)c2c(-c3ccccc3)cc(=O)n(C(C)C(=O)Nc3cc(C)ccc3C)c21 (centres undefined) | inactive: 4.7%
O=C(Nc1nc2c(F)cccc2s1)c1ccc(S(=O)(=O)N2CCCc3ccccc32)cc1 | inactive: 1.8%
COc1ccc(-c2ccc(NS(=O)(=O)c3cc(C)c(C)cc3C)cc2)nn1 | inactive: 6.86%
CCS(=O)(=O)NCC(c1ccco1)N1CCN(c2ccc(F)cc2)CC1 (centres undefined) | inactive: 9.25%
CC(=O)C1=C(c2cccc([N+](=O)[O-])c2)N(C(C)=O)n2c(nnc2-c2ccc(C)cc2)S1 | inactive: 19.7%
CCOC(=O)c1c(S(=O)(=O)N2CCCC(C(=O)N3CCN(c4cc(C)ccc4C)CC3)C2)c(C)n(C)c1C (centres undefined) | inactive: 3.02%
CCc1ccc(NC(=O)Cn2c(=O)n(CCCC(=O)NCc3ccc4c(c3)OCO4)c(=O)c3ccccc32)cc1 | inactive: 17.1%
O=S(=O)(c1ccc(Cl)cc1)c1nc(-c2cccs2)oc1SCc1ccccc1F | inactive: -8.81%
COc1ccc(-c2nnc(SCCOc3ccccc3C)o2)cc1OC | inactive: 1.91%
Cc1ccc(OCC(=O)Nc2nonc2-c2ccc(Br)cc2)cc1C | inactive: 4.73%
Cc1cc(C)cc(OCCSc2nc3ccc(NC(=O)COc4ccccc4)cc3s2)c1 | inactive: 12.3%
CC(=O)N1CCCc2cc(S(=O)(=O)N3CCCC(C(=O)NC(C)C)C3)ccc21 (centres undefined) | inactive: -4.78%
Cc1ccc(OCC(=O)Nc2c(C(=O)c3ccc(Cl)cc3)oc3ccccc23)cc1C | inactive: 7.42%

SMILES | activity change, negative = cytotoxicity
CCCCNC(=O)CCc1c(C)nc2cc(-c3ccccc3)nn2c1C | inactive: 0.268%
COc1ccc(N2C(=O)C(CC(=O)Nc3ccccc3)N(CCC3=CCCCC3)C2=O)cc1 (centres undefined) | inactive: 2.39%
Cc1[nH]c2ccccc2c1C1(O)C(=O)N(Cc2ccccc2)c2ccc(Cl)cc21 (centres undefined) | inactive: 9.51%
COc1ccc(-c2nnc(SC(C)C(=O)O)o2)cc1 (centres undefined) | inactive: -0.845%
O=C(CN1C(=O)CSc2ccc(S(=O)(=O)N3CCCC3)cc21)NCc1ccccc1Cl | inactive: 1.74%
COc1ccc(-n2nc(C(=O)Nc3ccc(C(C)=O)cc3)nc2-c2ccccc2)cc1 | inactive: 19.1%
CCOc1ccc(C2c3c(oc4ccc(C)cc4c3=O)C(=O)N2CCCN(C)C)cc1OC (centres undefined) | inactive: 0.329%
COc1ccc(CN(Cc2ccco2)C(=O)COc2ccccc2OC)cc1 | inactive: 5.72%
CCc1ccc2occ(CC(=O)Nc3ccc(OC)c(Cl)c3)c2c1 | inactive: -3.66%
CCOc1ccc(C(=O)Oc2c(Sc3ccccc3)c(C)nn2C(C)(C)C)cc1OCC | inactive: 4.4%
Cc1nc(SCC(=O)Nc2ccc(C)c(Cl)c2)cc(-c2ccccc2)n1 | inactive: 4.01%
O=C(Nc1ccccc1Cl)[C@H](CSCc1ccccc1)N1Cc2ccccc2C1=O | inactive: -5.07%
O=C(c1ccc2c(c1)CCN2S(=O)(=O)c1ccccc1)N1CCN(c2ccccc2F)CC1 | inactive: 0.969%
CC(C)c1ccc(CNC(=O)c2ccc(N3CCCC3)c(NC(=O)NCc3ccccc3)c2)cc1 | inactive: -20.9%
CCc1ccccc1-n1cnc2cc(C(=O)NC3CCCCCC3)ccc21 | inactive: 15.1%
Cc1ccc(C)c(N2CCN(C(=O)CCS(=O)(=O)c3cc(Br)cc4c3N(C(=O)C3CC3)CC4)CC2)c1 | inactive: -23.1%
CCC(=O)N1CCc2cc(CNS(=O)(=O)c3ccc(C(C)C)cc3)ccc21 | inactive: -6.04%
COC(=O)c1ccc2c(=O)n(CCCCCC(=O)N3CCN(c4cc(C)ccc4C)CC3)c(=O)[nH]c2c1 | inactive: 10.1%
CCOC(=O)c1c(NC(=O)/C=C/c2ccc(OCC)cc2)sc(C(C)=O)c1C | inactive: 1.14%
